# According to article PMC4336329 (PLoS ONE, 2015):
# The campaign covered roughly 310,000 compounds. About 2,200 (0.71%) showed an effect of 50% or more. The effect is printed as a negative number. The list shows a part of the results.
# Biological target: human ether-à-go-go-related gene (hERG) potassium channel (human, UniProt Q12809)
# Experiment: primary screen, population patch clamp on CHO cells stably expressing hERG
# Chain of human ether-à-go-go-related gene (hERG) potassium channel (Q12809 whole entry, looked up): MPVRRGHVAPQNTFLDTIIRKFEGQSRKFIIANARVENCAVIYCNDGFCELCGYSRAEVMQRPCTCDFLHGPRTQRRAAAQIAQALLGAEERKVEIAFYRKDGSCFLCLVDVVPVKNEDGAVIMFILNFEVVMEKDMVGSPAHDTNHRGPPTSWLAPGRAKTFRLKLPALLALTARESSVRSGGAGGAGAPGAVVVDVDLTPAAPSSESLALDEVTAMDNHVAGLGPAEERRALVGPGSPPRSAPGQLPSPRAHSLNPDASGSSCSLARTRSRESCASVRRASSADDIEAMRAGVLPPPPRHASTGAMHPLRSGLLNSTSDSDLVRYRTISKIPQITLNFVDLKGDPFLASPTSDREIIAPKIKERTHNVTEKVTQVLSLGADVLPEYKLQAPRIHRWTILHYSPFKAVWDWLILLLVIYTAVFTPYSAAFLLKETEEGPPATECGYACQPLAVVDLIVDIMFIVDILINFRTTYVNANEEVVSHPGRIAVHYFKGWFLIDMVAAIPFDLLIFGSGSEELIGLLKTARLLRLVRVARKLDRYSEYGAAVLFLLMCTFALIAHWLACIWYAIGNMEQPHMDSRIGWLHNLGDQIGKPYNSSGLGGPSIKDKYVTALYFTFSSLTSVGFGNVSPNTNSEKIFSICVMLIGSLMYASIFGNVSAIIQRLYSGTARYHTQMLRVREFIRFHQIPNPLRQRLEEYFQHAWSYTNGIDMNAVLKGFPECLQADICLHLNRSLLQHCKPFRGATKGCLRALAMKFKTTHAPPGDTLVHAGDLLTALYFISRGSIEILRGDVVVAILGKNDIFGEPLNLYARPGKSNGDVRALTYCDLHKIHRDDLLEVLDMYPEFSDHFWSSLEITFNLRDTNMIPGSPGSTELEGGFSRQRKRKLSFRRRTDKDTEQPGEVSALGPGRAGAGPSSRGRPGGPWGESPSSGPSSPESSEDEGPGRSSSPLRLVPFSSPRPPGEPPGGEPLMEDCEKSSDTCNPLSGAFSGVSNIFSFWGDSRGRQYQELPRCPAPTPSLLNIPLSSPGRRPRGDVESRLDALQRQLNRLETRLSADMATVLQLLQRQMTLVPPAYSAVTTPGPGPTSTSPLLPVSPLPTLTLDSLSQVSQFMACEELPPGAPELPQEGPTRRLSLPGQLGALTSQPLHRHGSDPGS
row,SMILES,"hERG current change (%, negative = inhibition) at 1uM"
1,COc1ccc(CCC(=O)NNC(=O)Nc2cccc(Cl)c2)cc1,8.85%
2,CC(NC(=O)Cn1cc2c(n1)CCCCC2)c1ccccc1 (stereo not shown),5.16%
3,CN1/C(=C\P(=O)(N(C)C)N(C)C)C(C)(C)c2ccccc21,6.33%
4,CCOC(=O)c1c(C)n(C)c2ccc(OCC(O)CN(CC)CC)cc12.Cl (stereo not shown),8.37%
5,O=C(NNC(=O)c1ccc([N+](=O)[O-])cc1)NC1CCCCC1,12.1%
6,Fc1ccc(/C=C\c2nccc3c2[nH]c2ccccc23)cc1,7.56%
7,Cc1nnc(SCCN2CCOCC2)n1C.O=C(O)C(=O)O,9.89%
8,Cc1ccc(CNC(=O)C2CC(c3cc(C(F)(F)F)cc(C(F)(F)F)c3)=NO2)o1 (stereo not shown),3.67%
9,Fc1ccc(-c2cc(C(F)(F)C(F)F)[nH]n2)cc1,11.5%
10,CCCCC#Cc1ccc2c(c1)COc1c3ccccc3nn1-2,12%
11,Cc1ccc(C(C(=O)NC2CCCCC2)N(Cc2ccccc2)C(=O)Cc2c[nH]c3ccccc23)o1 (stereo not shown),-4.09%
12,CC1=C(C(=O)Nc2ccc(C)cc2)C(c2cccs2)NC(=S)N1 (stereo not shown),-0.101%
13,COc1ccc(NC(=O)NC(C)c2ccc3c(c2)OCO3)c(OC)c1 (stereo not shown),15.2%
14,CC(CCc1ccccc1)NC(=O)C1CC1 (stereo not shown),7.47%
15,COc1ccc(S(=O)(=O)N[C@@H](CSCc2ccccc2)C(=O)O)cc1,13%
16,COc1ccccc1CN1CC(C(=O)NC2CCCCC2)CC1=O (stereo not shown),1.27%
17,Cc1cnn(-c2cc(N/N=C/c3ccccc3)ncn2)c1,6.76%
18,Cc1ccc(C(=O)NC2CC(C)(C)NC(C)(C)C2)cc1S(=O)(=O)N1CCCCC1,-4.33%
19,CCOc1cc(/C=N/Nc2cc(C)nc(-n3nc(C)cc3C)n2)ccc1O,5.21%
20,Nc1ccc(-c2nc3cc(N)ccc3n2CCO)cc1,5.63%

row,SMILES,"hERG current change (%, negative = inhibition) at 1uM"
1,CCCCNC(=O)c1ccc(NC(C)=O)c(Cl)c1,19.3%
2,Cc1cccc(NC(=O)c2ccc([N+](=O)[O-])o2)c1C,0.41%
3,O=c1[nH]c(=S)[nH]c2sc3c(c12)CCCCCC3,14.5%
4,N#Cc1ccc(-c2csc(NNC(=O)c3ccccc3)n2)cc1,5.53%
5,Clc1ccccc1-c1nc2nc3ccccc3nc2n1-c1ccc2c(c1)OCO2,10.9%
6,CCCCNC(=O)CCn1nc(-c2ccccc2)c2ccccc2c1=O,9.77%
7,CCOc1ccc(-c2nnc3ccc(SCC(=O)NCc4ccco4)nn23)cc1,-3.19%
8,CCCCS(=O)CC(COC)OC(=O)c1ccccc1 (stereo not shown),1.26%
9,CCOC(=O)c1c(NC(=O)c2ccoc2C)sc(C(=O)N(C)C)c1C,2.26%
10,COc1ccc(C(=O)NCc2nnc(SCCOc3ccccc3)n2C)cc1,4.9%
11,Cc1cccc(CNC(=O)c2ccccc2N)c1,1.03%
12,COc1ccc(CC(=O)Nc2ccc(-c3nc4cc(C)ccc4o3)c(O)c2)cc1OC,6.8%
13,COc1ccc(-n2c(=S)[nH]c3cc(C(=O)NCCCN4CCCC4=O)ccc3c2=O)c(OC)c1,9.44%
14,CCN(CC)CC(=O)Nc1c(C)cc(C(C)(C)C)cc1C.Cl,4.29%
15,CC1(C)CC(=O)C=C(c2ccc3c(c2)OCO3)C1,8.75%
16,CC1CCN(C(=O)c2[nH]cnc2C(=O)N[C@@H](Cc2ccccc2)C(=O)OC(C)(C)C)CC1,2.28%
17,Cn1c(C(=O)NCCN2CCc3ccccc3C2)cc2c(=O)[nH]c3ccccc3c21,10.1%
18,Cc1n[nH]c(C)c1CCN.Cl,10.6%
19,COc1ccc(CCNC(=O)CN2C(=O)CSc3ccc(S(=O)(=O)N4CCOCC4)cc32)cc1OC,16.6%
20,O=C1CCCN1c1ccc(S(=O)(=O)N2CCCCC2)cc1,11.5%

row,SMILES,"hERG current change (%, negative = inhibition) at 1uM"
1,Cc1cc(-c2ccc(C)c(S(=O)(=O)N3CC(=O)Nc4ccccc43)c2)on1,5.63%
2,COc1cc(OC)c(S(=O)(=O)NC(C)C)cc1S(=O)(=O)NC(C)C,11.3%
3,COc1ccc(CC(=O)NCc2cccs2)cc1OC,8.2%
4,COc1ccc(NC(=O)CN(CC(=O)Nc2ccc(OC)cc2)C(C)(C)CO)cc1,12.4%
5,CCCn1ncc(CN2CCC(Cc3cccc(F)c3)(C(=O)OCC)CC2)c1C,-10.2%
6,O=S1(=O)CC(NCc2ccccc2)C(Nc2ccccc2)C1 (stereo not shown),5.78%
7,Cc1ccc(C(=O)NC2CCN(CC(=O)NC3CCC(C)CC3)CC2)cc1 (stereo not shown),16.2%
8,CC(=O)Oc1ccc(C(=O)Nc2nnc(C)s2)cc1,-1.04%
9,O=C1NC(=Nc2ccccc2)SC1(CO)CO,11.2%
10,O=C(c1ccc(-c2ccc([N+](=O)[O-])cc2)o1)N1CCCCCCC1,-6.48%
11,Cc1sc2ncn(CC(=O)NCCCC(=O)Nc3ccc(C(C)C)cc3)c(=O)c2c1C,7.97%
12,CCOC(=O)Cc1csc(NC(=O)CSc2nnc(-c3ccc(F)cc3)o2)n1,8.78%
13,CCc1cccc(C)c1NC(=O)CN(C)Cc1ccc(Br)cc1,4.89%
14,CC(=O)Nc1ccc(C(=O)NNC(=O)c2ccccc2-n2cccc2)cc1,8.82%
15,COc1ccccc1N1CCN(c2nc(-c3ccccc3)cc(C(F)(F)F)n2)CC1,5.45%
16,CC1CCCc2sc3nc(N4CCN(CCO)CC4)n4ncnc4c3c21 (stereo not shown),-0.829%
17,COc1ccc(-c2cc(C(=O)N(C)Cc3ccc(OC)c(OC)c3OC)c3ccccc3n2)cc1OC,11.7%
18,O=S(=O)(Nc1ccc(-c2nnc(SCc3ccc(Cl)cc3)o2)cc1)c1ccccc1,9.6%
